From the RNAGym collection of RNA variant scans (doi:10.1073/pnas.2313332121)
Variants at the floor of the assay are shown more often than the library holds them.

B1: TPR 5TU (parent)
chain: GGAUCUUCUCGAUCUAACAAAAAAGACAAAUCUGCCACAAAGCUUGAGAGCAUCUUCGGAUGCAGAGGCGGCAGCCUUCGGUGGCGCGAUAGCGCCAACGUUCUCAACUAUGACACGCAAAACGCGUGCUCCGUUGAAUGGAGUUUAUCAUG

Variants of: B1
Experiment: polymerase ribozyme fitness, log enrichment relative to wild type (log ratio); higher = more active; in vitro selection for triplet polymerase activity
Procedure, shortened: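 Fitness is a logarithmic measure of how a genotype enriched relative to the wild type, with replicate averages weighted by inverse variance. The logarithm uses base 2, and enrichment came from Illumina sequencing of input and output libraries. Those libraries were PCR-built, transcribed mutants of each subunit of a heterodimeric triplet polymerase ribozyme, passed through one triplicate in vitro selection round that included frozen incubation at −7 °C, gel excision of extended constructs and streptavidin-bead capture. Genotypes were kept only if they had ≥10 input reads and ≥1 read per output.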

Variant	polymerase ribozyme fitness (log ratio)
GGAUCUUCUCGAUCUAACAAAAAAGACAAAUCUGCCACAAAGCUUGUGAGCAUCUUCGGAUGCAGAGACGGCAGCCUUGGGUGGUGCGAUAGCGCCAACGUUCUCAACUAUGACACUCAAAACGCGUGCUCCGUUGAAUGGAGUUUAUCAUG	≤ -4.2
GGAUCUUCUCGAUCUAACAAAAAAGACAAAUCUGCCACAAAGCUUGUGAGCAUCUUCGGAUGCAGAGGCGGCAGCCUUCGGUCGCGCGAUAGCGCCAACGUUCUCAGGUAUGACACGCAAAACGCGUGCUCCGUUGAAUGGAGUUUAUCAAG	≤ -4.2
GGAUCUUCUCGAUCUAACAAAAAAGACAAAUCUGCCACAAAGCUUGUGAGCAUCUUCGGAUGCAGAGGCGGCAGCCUUCGGUGUCGCGAAAGCGCCAACGUUCUCAACUAUGACCCGCAAAACGCGUGCUCCGUUGAAUGGAGUUUAACAUG	≤ -4.2
GGAUCUUCUCGAUCUAACAAAAAAGACAAAUCUGCCACAAAGCUUGUGAACAUCUUCGGAUGCAGAGGCGGCAGCCUUCGGUGGCGCGAUAACGCCAACGUUCUCAACUAUGACACGCAAAACGCGUGCUCCGUUGAAUGGAGUCUAUCAUG	≤ -4.2
GGAUCUUCUCGAUCUAACAAAAAAGACAAAUCUGCCACAAAGCUUGUGAGCAUCUUCGGAUGCAGAGGCGGCAGCCUUCGGUGGCGCGAUAGCGCCAACGUUCUCACCUGUGACACGCUAAACGCUUGCUCCGUCGAAUGGAGUUUAUCAUG	≤ -4.2
GGAUCUUCUCGAUCUAACAAAAAAGACAAAUCUGCCACAAAGCUUGAAAGCGUCGUCGGAUGCAGAGGCCGCAGCCUUCGGUGGCGCGAUAGCGCAAACGUUCUCAACUAUGACACGCAAAACGCGUGCUCCGUUGAAUGGAGUUUAUCAUG	≤ -4.2
GGAUCUUCUCGAUCUAACAAAAAAGACAAAUCUGCCACAAAGCUUGAACGGAUCUUCGGAUGCAGAGGCGGCAGCCUUCGGUGGUGCGGUAGCGCCUACGUUCGCAUCUAUAACACGCAGAACGCGUGCUCCGUUGAAUGGAGUUUAUCAUG	≤ -4.2
GGAUCUUCUCGAUCUAACAAAAAAGACAAAUCUGCCACAAAGCUUGUGAGCAUCUUCGGAUGCAGAGGCGGCAGCCUUCGGUGGCGCGAAAGCGGCAACGUUCUCAACUAUGACACGCAAAACGCGUGCUCCGUUGAAUGGAGUUUAUCAUG	≤ -4.2
GGAUCUUCUCGAUCUAACAAAAAAGACAAAUCUGCCACAAAGCUUGUGAGCAUCUUCGGAUGCAGAGGCGGCAGCCUUCGGUGGCGCCAUAGCGCCAACGUUCUCAACUUUGACACGCAAAACGAGUGCUCCGUUGAAUGGAGUUUAUCAUG	≤ -4.2
GGAUCUUCUCGAUCUAACAAAAAAGACAAAUCUGCCACAAAGCUUGUGAGCAUCUUCGGAUGCAGAGACGGCAGCCUUCGGUUGCGUGAUAGCGCCAACGUUCUCAACUAUGACACGCAAAACGCGUGCCCCGUUGAAUAGAGUUUAUCAUG	≤ -4.2
GGAUCUUCUCGAUCUAACAAAAAAGACAAAUCUGCCACAAAGCUUGUGAGCAUCGUCGCAUGAAAAGGCGGCAGCCUUCGGUGGCGCGAUAGCGCCAACGUUCUCAACUAUGACACGCAAAACGCGUGCUCCGUUGAAUGGAGUUUAACAUG	≤ -4.2
GGAUCUUCUCGAUCUAACAAAAAAGACAAAUCUGCCACAAAGCUUGUGAGCAUCUUUGGAUGCAGAGGCGGCAGCCUUCGGUGGCGCGAUAGCGCCAACGUUCUCAACUAUGACACGCAAAACGCGUGCUCCGUUGAAUGGAGUUUAUCAUG	0.131
GGAUCUUCUCGAUCUAACAAAAAAGACAAAUCUGCCACAAAGCUUGUGAGCAUCUUCGGAUGCAGAGGCGGCAGCCUUCGGUGGGGCGAUAGCGCCAACGUUCUCAACUAUGACACGCAAAACGCGUGCUCCGUUGAAUGGAGUUUAUCAUG	-2.65
GGAUCUUCUCGAUCUAACAAAAAAGACAAAUCUGCCACAAAGCUUGUGAGCAUCUUCGGAUGCAGAGGCGGCAGCCUUCGGUGGAGCGAUAGCGCCAACGUUCUCAACUAUGACACGCAAAACGCGUGCUCCGUUGAAUGGAGUUUAUCAUG	-2.21
GGAUCUUCUCGAUCUAACAAAAAAGACAAAUCUGCCACAAAGCUUGAAAGCCUCUUCGGAUGCAGUGGCGGCAGCCUUCGGUGGUGCAAUAGCGCCAUCGUUCUCAACUAUGACACGCAAAACGCGUGCUCCGUUGUAUGGAGUUUAUCAUG	≤ -4.2
GGAUCUUCUCGAUCUAACAAAAAAGACAAAUCUGCCACAAAGCUUGUGAGCAUCUUCGGAUGCAGAGGCGGCAGCCUUCGGUGGCGCGAUAGUGCCAACGUUCUCAACUAUGACUCGCAAGACGCGUGCUCCGUUGAAUUGAGUUUAUCAUG	≤ -4.2
GGAUCUUCUCGAUCUAACAAAAAAGACAAAUCUGCCACAAAGCUUGUGAGCAUCUUCGGAUGCAGAGGCGGCAGCCUUCGCUGGGUCGAUAGCGUCAACGUUCUCCACUAUGACACGCAAAACGCGUGCUCCGUUGAAUGGAAUUUAUCAUG	≤ -4.2
GGAUCUUCUCGAUCUAACAAAAAAGACAAAUCUGCCACAAAGCUUGUGAGCAUCUUCGGAUGCAGAGGCGGCAGCCUUCGGUCGCGCGAUAGCUCCAACGUUCUCAAUUAUGACACGCAAAACGCCUGCUCCGUUGACUGGUGUUUAUUAUG	≤ -4.2
GGAUCUUCUCGAUCUAACAAAAAAGACAAAUCUGCCACAAAGCUUGUGAGCAUCUUCGGAUACAGAGGCGGCAGCCUUCGGUGGCGCGAUAGCGCCAACGUUCUCAACUAUGACACGCAAAACGCGCGCUCCUUUGAAUGGAGUUUAUCAUG	≤ -4.2
